Results on 79 compounds are retold here after PubChem BioAssay AID1346428 (National Center for Advancing Translational Sciences (NCATS), 2018).

Where “and” joins values, the source holds several entries; their conditions need not be identical. Equal values may be shown once. In all, about 48,000 compounds went through this assay and about 1,200 (2.5%) were called active. Roughly 2% stayed inconclusive and do not appear here.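 Rule for the calls: active = activation of at least 60% and not above a set upper limit (about 1 call in 100 departs from these limits); inconclusive = activation of 40% to 60%, or above that upper limit; inactive = activation under 40%.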 The list shows a part of the results.

The test deals with Probable G-protein coupled receptor 32 (Homo sapiens) (UniProt O75388). Kind of test: qHTS for Agonists of Human Resolvin D1 Receptor DRV1. The note with it: CHO-K1 GPR32 beta-arrestin PathHunter luminescence, 90 min; at 76.9 µM; stronger effect = higher value; zero percent set by DMSO-only wells. In short, it runs like this: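 Beta-arrestin recruitment read-out: luminescence from complemented beta-Gal in CHO-K1 GPR32 PathHunter cells, measured 1 h after detection reagent at ambient temperature following 90 min compound exposure at 37 °C; DMSO served as basal (EC0) control.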
Sequence of UniProt O75388 (O75388 whole entry, looked up): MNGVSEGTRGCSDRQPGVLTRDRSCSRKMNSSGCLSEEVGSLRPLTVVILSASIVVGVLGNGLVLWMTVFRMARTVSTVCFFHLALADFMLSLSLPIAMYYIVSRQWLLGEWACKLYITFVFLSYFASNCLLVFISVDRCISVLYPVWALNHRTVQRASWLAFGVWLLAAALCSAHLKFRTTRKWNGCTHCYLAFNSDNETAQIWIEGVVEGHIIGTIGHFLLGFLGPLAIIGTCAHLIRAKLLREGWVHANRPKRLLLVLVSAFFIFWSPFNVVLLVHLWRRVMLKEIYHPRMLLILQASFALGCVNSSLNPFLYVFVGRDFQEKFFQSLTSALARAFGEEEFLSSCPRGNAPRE
For orientation: qHTS replaces the single test concentration by a dilution series.
As for `Cc1ccc2c(c1)c1c(c(=O)n(-c3cccc(Cl)c3)c(=O)n1CC(=O)NCCC1=CCCCC1)n2C`, the activation was inactive: -4.16%.

In the case of `CCn1c(SCc2ccccc2C)nc(=O)c2c(C(=O)OC)cc(C3CC3)nc21`, the activation was inactive: -7.59%.

`O=C(Nc1nnc(-c2cc(Cl)ccc2Cl)o1)c1ccc2c(c1)OCCO2`: the activation was inactive: -2.26%.

`COc1ccc(-n2c(Cc3ccccc3)nnc2SCc2nc(-c3cccs3)no2)cc1`: the activation was inactive: 1.25%.

For the compound `O=c1cc(CSc2ncn[nH]2)[nH]c2ccc(F)cc12`, the activation was inactive: -2.27%.

In the case of `CCc1ccc(NS(=O)(=O)c2ccc3oc(=O)c4ncn(CC)c4c3c2)cc1`, the activation is inactive: 12.6%.

For `CCOC(=O)C1CCC(CN(Cc2ccc(OC)cc2)S(=O)(=O)c2ccc(F)c(C(=O)Nc3ccc(C)c(C)c3)c2)CC1` (centres undefined), the activation is inactive: 6.11%.

`CCN(CC)S(=O)(=O)c1ccc2c(c1)N(CC(=O)N1CCN(c3cccc(Cl)c3)CC1)C(=O)CO2`: the activation was inactive: -32%.

Turning to `CCC1CN(C(=O)N2CCC(C(=O)NCCc3cc(OC)ccc3OC)CC2)c2ccccc2O1` (centres undefined), the activation is inactive: -11.8%.

`CN(C)C1(CNC(=O)COc2ccc([N+](=O)[O-])cc2)CCCCC1`: the activation was inactive: -3.5%.

On to `CCN(C(=O)Cn1c(=O)n(CCCS(=O)(=O)C2CCCCC2)c(=O)c2ccccc21)c1cccc(C)c1`, for which the activation is inactive: 2.58%.

As to `COc1cccc(-n2cc(C(=O)Nc3cccc(C(F)(F)F)c3)c3ccccc3c2=O)c1`, the activation was inactive: -20.6%.

Regarding `CC(C)Oc1ccc(CNC(=O)c2ccc(CS(=O)c3cccc(Cl)c3)o2)cc1` (centres undefined), the activation was inactive: -0.247%.

In the case of `Cc1ccc(NC(=O)N2CCc3cc(S(=O)(=O)N4CCC(C)CC4)ccc32)cc1`, the activation is inactive: -12.1%.

As to `CCn1c(CN2CCOCC2)nc2cc(NC(=O)c3ccccc3[N+](=O)[O-])ccc21`, the activation is inactive: -23.6%.

`CC(=O)Nc1cc(-c2nc3cc(Cl)ccc3o2)ccc1C`: the activation is inactive: -3.75%.

In the case of `CC1CCN(C(=O)Cn2c(=O)n(CCCCCC(=O)NCc3ccccc3Cl)c(=O)c3sccc32)CC1`, the activation was inactive: -27.8%.

In the case of `Cc1ccc(Cl)cc1Nc1nn2c(=O)c3ccc(C(=O)Nc4ccc(F)cc4)cc3nc2s1`, the activation was inactive: 22.4%.

Take `Cc1cc(Cl)ccc1NC(=O)Cn1nc(C)c2c(C)n(-c3ccccc3)nc2c1=O`: the activation is inactive: -17.6%.

`CC(=O)N1CCc2c(sc3nc(SCC(C)C)n(-c4ccc(C)c(Cl)c4)c(=O)c23)C1`: the activation was inactive: 29%.

For `Cc1ccc(-c2nnc(Nc3ccc(OC(F)(F)Cl)cc3)c3ccccc23)cc1S(=O)(=O)NC(C)(C)CO`, the activation was inactive: -7.05%.

Regarding `Cc1nc2scc(C)n2c(=O)c1S(=O)(=O)Nc1ccc(N2CCN(S(C)(=O)=O)CC2)cc1`, the activation is active: 79.6%.

As for `N[C@@H](Cc1ccc(O)cc1)C(=O)O`, the activation is inactive: -21.1%.

`O=C(COc1ccc(Cl)cc1)N1CCN(Cc2ccc3c(c2)OCO3)CC1`: the activation was inactive: 40.5%.

Take `CCc1nn2c(=O)cc(COC(=O)c3ccc(NC(=O)CCc4ccccc4)cc3)nc2s1`: the activation was inactive: -20.8%.

For `O=C(Nc1ccc(-c2nc3cc(NC(=O)c4ccc(F)cc4)ccc3o2)cc1)c1ccc(F)cc1`, the activation is inactive: 2.56%.

`CCCCn1c(=N)c(S(=O)(=O)c2ccc(C)cc2)cc2c(=O)n3cc(C)ccc3nc21`: the activation was inactive: -2.27%.

As for `Nc1ccc(NC(=O)c2cccc(C(=O)Nc3ccc(N)cc3Cl)c2)c(Cl)c1`, the activation was inactive: -1.73%.

`O=C(COc1ccccc1)N(Cc1cccnc1)c1nc2c(F)cccc2s1`: the activation was inactive: -8.39%.

Regarding `Cc1nn(C(C)C(=O)Nc2ccc(C(C)C)cc2)c(=O)c2c1sc1ccccc12` (centres undefined), the activation was inactive: -12.4%.

For the compound `CC(NC(=O)C1CCN(S(=O)(=O)c2ccccc2)CC1)c1ccccc1` (centres undefined), the activation was inactive: -6.3%.

With `CCc1nc(SC)ncc1C(=O)N1CCN(c2cc(Cl)ccc2C)CC1`, the activation was inactive: -9.02%.

With `CCCN(CCC)CCCNC(=O)c1cnn(-c2ccc(F)cc2)c1-n1cccc1`, the activation is inactive: 7.85%.

Regarding `COc1cc(/C=C(\C#N)c2nc3ccccc3[nH]2)ccc1OCc1ccc(F)cc1`, the activation is inactive: 31.1%.

With `COc1cc(-c2nc(SCC(=O)Nc3ccc(C)cc3)c(-c3ccc(F)cc3)[nH]2)cc(OC)c1OC`, the activation is inactive: -24.4%.

As to `CN(Cc1cnc2nc(N)nc(N)c2n1)c1ccc(C(=O)N[C@@H](CCC(=O)O)C(=O)O)cc1`, the activation is inactive: 7% and inactive: -1.2%.

Turning to `COc1ccccc1CNc1nc(-c2ccco2)nn1C(=O)c1cc(OC)c(OC)c(OC)c1`, the activation is inactive: -0.334%.

`CCc1ccccc1NC(=O)c1cc(S(=O)(=O)N2CCc3ccccc32)ccc1F`: the activation was inactive: -25.7%.

As for `CCCn1c2ccccc2c2cnn(CC(=O)NCC3CCN(Cc4ccc(F)cc4)CC3)c(=O)c21`, the activation is inactive: -7.68%.

In the case of `COc1ccccc1N1CCN(C(=O)c2cnn(-c3cccc(Cl)c3)c2C2CCN(C(=O)OC(C)(C)C)CC2)CC1`, the activation was inactive: -25.4%.

With `Cc1cccc(-c2nn3c(=O)cc(CN4CCN(C(=O)c5ccccc5Br)CC4)nc3s2)c1`, the activation is inactive: -4.5%.

Take `C#CC(C)(CC)NC(=O)Cn1nnc(-c2ccc(OCc3ccccc3C)cc2)n1` (centres undefined): the activation is active: 61.9%.

In the case of `Cc1ccccc1CNC(=O)C1=Cc2ccccc2OC1`, the activation is inactive: -18.4%.

`Cn1c(=O)c2c(nc(N3CCOCC3)n2Cc2cccc(Br)c2)n(C)c1=O`: the activation is inactive: -11.9%.

Consider `COc1ccc(N2CCN(C(CNC(=O)C(=O)NCc3cccnc3)c3cccnc3)CC2)cc1` (centres undefined), for which the activation was inactive: -5.83%.

For the compound `Cc1ccccc1CNC(=O)Cc1ccc(NC(=O)N2CCCCc3ccccc32)cc1`, the activation is inactive: -17.3%.

Regarding `Cc1[nH]n2c(=O)cc(-c3ccc(Cl)cc3)nc2c1-c1ccccc1`, the activation was inactive: -13.6%.

Regarding `Cc1ccc(-c2cc(N)n(-c3ccc(C)cc3)n2)cc1`, the activation is inactive: -24.9%.

On to `CC(=O)OC[C@H]1O[C@@](COC(C)=O)(O[C@H]2O[C@H](COC(C)=O)[C@@H](OC(C)=O)[C@H](OC(C)=O)[C@H]2OC(C)=O)[C@@H](OC(C)=O)[C@@H]1OC(C)=O`, for which the activation was inactive: -7.76%.

For the compound `Cc1c(C(=O)N2CCCCC2)c(S(=O)(=O)NCc2ccc(N(C)C)cc2)c(C)n1C`, the activation was inactive: -6.91%.

In the case of `CCOc1ccc(C(=O)c2cn(CC(=O)Nc3cccc(OC)c3)c3cc4c(cc3c2=O)OCCO4)cc1`, the activation is inactive: 10.2%.

As for `Cc1nn2c(-c3ccco3)ccnc2c1-c1ccc(Br)cc1`, the activation was inactive: 16%.

For the compound `COc1ccc(CNC(=O)c2ccc3nc(CCc4ccccc4)oc3c2)cc1`, the activation was inactive: 4.11%.

Regarding `COc1ccccc1CNC(=O)C(C)n1ccc2cc(S(=O)(=O)N3CCCC3)ccc21` (centres undefined), the activation was inactive: -11.1%.

In the case of `Cc1cccc(N2CCN(C(=O)C3CCN(C(=O)c4cc5sccc5n4C)CC3)CC2)c1C`, the activation is inactive: 27%.

`Cc1ccc(C2Nc3cc(C)c(C)cc3-n3c(-c4ccccc4)c4c(=O)n(C)c(=O)n(C)c4c32)o1` (centres undefined): the activation was inactive: -1.82%.

For `Cc1ccc(-c2[nH]c3c(c2-c2c(-n4cccc4)n(C)c(=O)[nH]c2=O)c(=O)[nH]c(=O)n3C)cc1`, the activation is inactive: -5.07%.

Take `CCOC(=O)c1c(C)oc2nc(C)nc(N3CCN(c4ccccc4F)CC3)c12`: the activation is inactive: -6.71%.

On to `CCOc1ccc(NC(=O)C2CCN(c3nnc(C)c4c(C)n(-c5ccccc5)nc34)CC2)cc1`, for which the activation was inactive: -9.44%.

Turning to `Cc1ccc(NC(=O)CSc2nc3c([nH]c4ccccc43)c(=O)n2-c2ccccc2)cc1Cl`, the activation was inactive: -26.8%.

Regarding `CC1Cn2c(C(=O)NCCc3ccc(Cl)cc3)cc3cccc(c32)S1` (centres undefined), the activation is inactive: -22.3%.

Take `CCN(CC)CCNc1ccc(CO)c2sc3ccccc3c(=O)c12`: the activation is inactive: 18.4%.

As to `Cc1ccc(F)cc1NC(=O)CCc1c(C)nn(-c2ccc(N3CCOCC3)nn2)c1C`, the activation is inactive: 7.48%.

For the compound `Cc1ccc2[nH]cc(S(=O)(=O)c3ccc(C)c(C)c3)c(=O)c2c1`, the activation is inactive: -1.34%.

`CSc1ccc(C2CC(=O)Oc3c2c(=O)n(C)c2ccccc32)cc1` (centres undefined): the activation is inactive: -8.85%.

As for `COc1ccc(NC(=O)CCS(=O)(=O)c2nc(-c3ccc4c(c3)OCO4)cc(C(F)(F)F)n2)cc1`, the activation was inactive: -24.5%.

As to `COc1ccc(C)cc1NC(=O)CCc1c(C)nn(-c2ccc(N3CCCCC3)nn2)c1C`, the activation is inactive: -3.62%.

For the compound `Cc1ccc(/C=C/c2onc(C)c2S(=O)(=O)N2CCC(C(=O)N3CCOc4ccc(C)cc43)CC2)cc1`, the activation is inactive: -27.4%.

`Cc1c(C(=O)N2CCCC2)oc2c1-c1nn(CC(=O)NCc3ccccc3Br)cc1CC2`: the activation was inactive: -1.24%.

Consider `COc1ccc(-c2cc(C(=O)Oc3ccc(C)cc3)c3cc(C)ccc3n2)cc1`, for which the activation is inactive: -21.6%.

With `O=C(CN1C(=O)COc2ccc(S(=O)(=O)N3CCCCCC3)cc21)Nc1cccc(Cl)c1`, the activation is inactive: -24.9%.

For the compound `CCOc1ccc2nc3cc(N)ccc3c(N)c2c1`, the activation was inactive: 44.3%.

As for `CC1CCN(c2nn3c(=O)c(C(=O)NCCc4ccccc4)cnc3s2)CC1`, the activation was inactive: -1.76%.

Consider `Cc1cc(=O)n(C(C)C(=O)N2CCCc3ccccc32)c2c1c(C)nn2-c1ccccc1` (centres undefined), for which the activation was inactive: 3.35%.

Turning to `Cc1c(C(=O)NCc2ccccc2)sc2nc[nH]c(=O)c12`, the activation is inactive: -11.4%.

In the case of `Cc1ccc(CCNc2nc3c(S(=O)(=O)c4ccccc4)nnn3c3ccsc23)cc1`, the activation was inactive: -7.51%.

As for `COc1cc(-c2noc(-c3ccc(N(C)C)c([N+](=O)[O-])c3)n2)cc(OC)c1OC`, the activation is inactive: -1.25%.

As for `O=C(Nc1cc(-c2nc3ccccc3o2)ccc1Cl)c1ccc(Br)o1`, the activation was inactive: -16.2%.

With `CSc1ccc2c(c1)N(CCC1CCCCN1C)c1ccccc1S2` (centres undefined), the activation is inactive: 32% and inactive: 3.95%.
